Laboratory results published in the supplement of paper PMC10126150.
Sequences with one replicate were seen in a single cluster, so their values are uncertain.

System: ATP
Assay: switch fluorescence ratio, 500 uM ATP over buffer (Cy3 cluster intensity, sum of 5 cycles each) (fold (ratio)); higher = stronger signal-on switching upon ATP binding; sequences stand for … in TCGTCGGCAGCGTCAGATGTGTATAAGAGACAGTTTTTTTTTTTTTTTTTTTTTTTTT…TC
Conditions: aptamer strand: ATP DNA aptamer (quencher-CACCTGGGGGAGTATTGCGGAGGAAGG + anchor), 100 nM annealed; ATP concentration: 500 uM; one replicate
Outline: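 Imaging in selection buffer was followed by imaging after 15 min with 500 uM ATP at 22 °C, for Cy3-labelled switching-strand clusters annealed to 100 nM quencher-labelled ATP aptamer on a modified Illumina MiSeq flow-cell. Five of these buffer/ATP cycles ran, separated by NaOH stripping and re-annealing. The fluorescence ratio per cluster is summed target-cycle over summed buffer-cycle Cy3 intensity, averaged per switch-domain sequence; clusters outside 100-1000 RFU were removed.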
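Further: ATP exposure 15 min at 22 °C before imaging.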

Row | Sequence | switch fluorescence ratio
1 | ATATTTGGGA | 0.988
2 | ATTGCAGTAC | 5.08
3 | TAGGAAGTGA | 0.991
4 | AACATAAGAG | 1
5 | TGATGAAGCT | 1.01
6 | CGTCGAGTTA | 1.01
7 | GAACCCCCCA | 1.03
8 | TTTCTCATAC | 1.22
9 | GGGCCAGGAT | 0.943
10 | ATAGTCTTGG | 0.938
11 | TGTCGGGGAA | 0.96
12 | ATTTTATCAT | 1.02
13 | TAGCGCGCTC | 1
14 | GCGTGATGCG | 1.02
15 | GATCGAGTAT | 1.01
16 | TATTCAGTTC | 0.992
17 | AAAAAGAGCA | 0.995
18 | TTTCAGACT | 0.985
19 | TCGTATGAGG | 0.99
20 | TGAGCACCTA | 1.07
21 | TACATGTGA | 1.03
22 | CTGGCGGGGG | 1.05
23 | AAAAGGACCG | 1.06
24 | TTTAGGATAT | 1.04
25 | TATCTTTCA | 1.02
26 | TACTCACCCT | 1.54

Row | Sequence | switch fluorescence ratio
27 | CTGGACTACA | 1.05
28 | TGTATGCCTA | 1.05
29 | TAACAGACAG | 1.03
30 | CATACGATAC | 2.95
31 | GGCATAGCGA | 1.07
32 | AGGTCGAGGT | 1.02
33 | CGAGCCAGTG | 1.13
34 | AGCGGTCCG | 0.988
35 | ATGGGTAAAG | 0.949
36 | CTACCTGGCA | 1.06
37 | TCACCGGGCT | 0.976
38 | CGTGACCGTA | 1.01
39 | AGCCCGTGTA | 0.991
40 | CGTTCCTTT | 1.03
41 | TCTAAACCAT | 1.01
42 | TGTACAAAAC | 1.2
43 | GTTGGCAACG | 0.956
44 | TGGCTAACTA | 1.02
45 | CCCCATACAT | 1.05
46 | ACAGATGGTA | 1.01
47 | TGCGACGTCC | 0.986
48 | TTCGATGAG | 1.01
49 | CATGGCGCCA | 1.01
50 | AACAAGGGGC | 1.14
51 | AAGAAGCTAC | 1.66
52 | GGTAGAGCGT | 0.981

Row | Sequence | switch fluorescence ratio
53 | CCTATTGAGA | 0.954
54 | GTTTCCTCGC | 2.8
55 | TATGCGTCGT | 0.983
56 | CCGGGCCCAG | 1.28
57 | CATCAACACG | 1
58 | GGAGTGGGCG | 0.974
59 | AGATCGTTC | 0.965
60 | GTTTTTCACC | 0.963
61 | AAATCGGATC | 1.01
62 | ATAATCTTGC | 1.25
63 | TTAGACTTAG | 1
64 | TAACTGGGAA | 0.992
65 | AGATTTCTAA | 0.96
66 | TCTAAATGAA | 1.01
67 | CTAGCTGGAC | 1.72
68 | AGCAGGCGGC | 1.04
69 | CAGTCCAACG | 1.02
70 | ATATTTGGT | 0.997
71 | ACGTTTTGCT | 0.952
72 | AGTTGTTCCC | 1.04
73 | TGGTACATCG | 1.02
74 | GCTAGCGTAT | 1.08
75 | ATTGGAATCT | 0.981
76 | CCAAAATCGT | 0.989
77 | GGCTGGTAGG | 1.01
78 | CCGGAGGCGG | 1.15

Row | Sequence | switch fluorescence ratio
79 | GTGGTTGCAA | 0.984
80 | TCTCTTGTGT | 0.978
81 | AGTCAACCT | 1.69
82 | ACTTCGGGTG | 1.16
83 | GTGTGGCATG | 0.971
84 | ATTTTTGGTA | 1.02
85 | GCAGACATAT | 0.992
86 | CTACCATAAT | 1.07
87 | CGAGCCGGTG | 1.19
88 | AGTAACGTGT | 1.04
89 | GGGAGTACTG | 1
90 | TCTAGACGCA | 1.07
91 | TATTAGGGAA | 0.959
92 | AGCCACCACT | 1.01
93 | CGGCTGACAA | 1.1
94 | AGACGTCTAA | 1.04
95 | CAGGAAGTGC | 1.06
96 | GTTGGCTGTA | 0.942
97 | GCGATTTACA | 1.07
98 | TGTTTTCCGC | 1.19
99 | GATAAATCAG | 1.02
100 | TAATGCGGC | 1.05
101 | CCAGTACCGT | 1.01
102 | CTAACGTGGG | 0.945
103 | TCATCGTAGC | 1.07
104 | TTCTTCGCGC | 1

Row | Sequence | switch fluorescence ratio
105 | GAGCTTGACT | 0.984
106 | CCGGGGCATC | 5.2
107 | GGGGACATGT | 1.01
108 | TACTGTACTT | 1.43
109 | GGTAATGTAA | 1.09
110 | GGTAGATATT | 0.949
111 | TTGGCTATAA | 1.03
112 | AACCTGAGCA | 1.18
113 | CTGTCTCAT | 0.984
114 | CAACGACCAG | 1.04
115 | TATCCATGCT | 1.03
116 | TTGTGGCCAG | 1
117 | GCACTGCAGG | 1.02
118 | TGGGCTCGGC | 1
119 | TAGCTTCCTT | 1.36
120 | GTCTTAGTAA | 1
121 | GCGGGGAACG | 1.02
122 | AGAATGTTAT | 1.02
123 | TGGGATATGT | 0.988
124 | TTGCGTTAGA | 1.02
125 | TTTTGATGCA | 1.1
126 | AAATGGGACG | 1.04
127 | AGTATTCGTG | 1.03
128 | GAGACTGCCC | 1.06
129 | TCGGGGCATT | 1.04
130 | TTCTCCTAGA | 0.996

Row | Sequence | switch fluorescence ratio
131 | GCGGGTTCGT | 0.966
132 | ACGGCCCTAG | 1.05
133 | GCAAGACGAG | 1.43
134 | AATACGCGGA | 1.09
135 | ACACTCGTGG | 1.02
136 | CAGTATACTA | 1.03
137 | TGGCATCGCG | 1.08
138 | ACTAATGATT | 1.05
139 | AGAGGGTCAA | 1.06
140 | CTTGTAATCG | 0.964
141 | CATGTTAGGA | 1.02
142 | GATCCCAGCT | 0.984
143 | TGCATAGAGG | 1
144 | TGCTAGTAT | 0.989
145 | GCACGCCCAT | 1.22
146 | AGGGCGCTTA | 0.988
147 | GAAGGGGGTC | 1.02
148 | ACGCAAAGCT | 2.47
149 | AGCTTGACCG | 1.06
150 | ACATTACCAT | 1.04
151 | ACATCAGGTT | 1.02
152 | GTGTTTAAAC | 0.923
153 | CATTTGCCGT | 1.01
